From the supplement of paper PMC6609913 come the findings set out here.

The subject of the test is V-C8 + BRCA2 (BRCA2-proficient hamster cells). As to the kind of experiment: normalised cell viability (fraction of plate median); higher = more viable cells (less toxic). To be noted: 5 µM. In short, it runs like this: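 Cell viability was measured with a resazurin assay, normalised to the plate median (modified robust per cent of sample) and averaged over triplicate wells. Hamster V-C8 cells lacking BRCA2 and V-C8 cells with BRCA2 restored were seeded in 96-well plates. After 24 h, library drugs from 10 mM DMSO stocks were added at a final 5 μM in 100 μl medium and left for 3 days (screen 1) or 6 days (screen 2), with solvent-only wells alongside.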

Where a name gives a salt, the structure may show the parent alone. ± gives the standard deviation of the averaged measurements. In all, about 1,300 compounds were measured (“normalised cell viability”: median about 1, lowest 2% from about 0.15 on). This is one part of the list.

For `CN(C)CCOC(=O)C(c1ccccc1)C1(O)CCCC1` (configuration not stated) [Cyclopentolate hydrochloride], the normalised cell viability turned out to be 0.974 ± 0.11 (treatment time: 3 days) and 1.04 ± 0.083 (treatment time: 6 days).

`Nc1ccc(/N=N/c2ccccc2)c(N)n1` [Phenazopyridine hydrochloride]: the normalised cell viability by setting is: (treatment time: 3 days) 1.02 ± 0.039; (treatment time: 6 days) 1.04 ± 0.035.

In the case of `CCC(=O)O[C@]1(C(=O)SCF)[C@H](C)C[C@H]2[C@@H]3C[C@H](F)C4=CC(=O)C=C[C@]4(C)[C@@]3(F)[C@@H](O)C[C@@]21C` [Fluticasone propionate], the normalised cell viability reads like this: (treatment time: 3 days) 0.932 ± 0.013; (treatment time: 6 days) 0.888 ± 0.026.

Take `O=C(O)c1ccccc1Nc1cccc(C(F)(F)F)c1` [Flufenamic acid]: the normalised cell viability was found to be 0.975 ± 0.023 (treatment time: 3 days) and 1.06 ± 0.11 (treatment time: 6 days).

Regarding `CC[N+](C)(CC)CCC[n+]1c(-c2ccccc2)c2cc(N)ccc2c2ccc(N)cc21` [Propidium iodide], the normalised cell viability reads like this: (treatment time: 3 days) 0.88 ± 0.019; (treatment time: 6 days) 0.89 ± 0.037.

Turning to `O=C1O[C@H]([C@@H](O)CO)C(O)=C1O` [Ascorbic acid], the normalised cell viability is, setting by setting: (treatment time: 3 days) 0.955 ± 0.018; (treatment time: 6 days) 1.12 ± 0.044.

For `Clc1ccc(C(c2ccccc2Cl)C(Cl)Cl)cc1` (configuration not stated) [Mitotane], the normalised cell viability (treatment time: 3 days) turned out to be 1.02 ± 0.035 and the normalised cell viability (treatment time: 6 days) was 1.01 ± 0.076.

Regarding `O=C1Nc2ccc(Cl)cc2[C@@](C#CC2CC2)(C(F)(F)F)O1` [Efavirenz], the normalised cell viability reads like this: (treatment time: 3 days) 1.07 ± 0.034; (treatment time: 6 days) 1.038 ± 0.0087.

Take `Nc1ccc(C(=O)O)c(O)c1` [4-aminosalicylic acid]: the normalised cell viability (treatment time: 3 days) was determined as 0.944 ± 0.086 and the normalised cell viability (treatment time: 6 days) was found to be 1.03 ± 0.043.

Consider `NCCCCCC(=O)O` [Aminocaproic acid], for which the normalised cell viability runs as follows: (treatment time: 3 days) 0.899 ± 0.037; (treatment time: 6 days) 0.892 ± 0.057.

On to `CN(C)C(=N)NC(=N)N` [Metformin hydrochloride], for which the normalised cell viability is, setting by setting: (treatment time: 3 days) 0.897 ± 0.085; (treatment time: 6 days) 0.985 ± 0.079.

As for `CC=CC(=O)N(CC)c1ccccc1C` [Crotamiton], the normalised cell viability was determined as 0.872 ± 0.066 (treatment time: 3 days) and 0.933 ± 0.037 (treatment time: 6 days).

In the case of `CNCCc1ccccn1` [Betahistine mesylate], the normalised cell viability was determined as 1.04 ± 0.072 (treatment time: 3 days) and 1.11 ± 0.078 (treatment time: 6 days).

Regarding `Nc1nc2c(ncn2COC(CO)CO)c(=O)[nH]1` [Ganciclovir], the normalised cell viability (treatment time: 3 days) was 1.05 ± 0.03 and the normalised cell viability (treatment time: 6 days) is 0.973 ± 0.02.

As for `CO[C@H]1/C=C/O[C@@]2(C)Oc3c(C)c(O)c4c(O)c(c5c(nc6cc(C)ccn65)c4c3C2=O)NC(=O)/C(C)=C\C=C\[C@H](C)[C@H](O)[C@@H](C)[C@@H](O)[C@@H](C)[C@H](OC(C)=O)[C@@H]1C` [Rifaximin], the normalised cell viability by setting is: (treatment time: 3 days) 0.957 ± 0.037; (treatment time: 6 days) 0.951 ± 0.05.

Turning to `Clc1cccc(Cl)c1NC1=NCCN1` [Clonidine hydrochloride], the normalised cell viability by setting is: (treatment time: 3 days) 0.986 ± 0.038; (treatment time: 6 days) 0.997 ± 0.01.

For `O=C1[C@H]2CCCC[C@H]2C(=O)N1CCCCN1CCN(c2nsc3ccccc23)CC1` [Perospirone], the normalised cell viability by setting is: (treatment time: 3 days) 1.02 ± 0.02; (treatment time: 6 days) 1.12 ± 0.1.

As to `CCN(CC)C(C)CN1c2ccccc2Sc2ccccc21` (configuration not stated) [Ethopropazine hydrochloride], the normalised cell viability amounted to 1.09 ± 0.093 (treatment time: 3 days) and 0.996 ± 0.033 (treatment time: 6 days).

Take `CCCNC(=O)NS(=O)(=O)c1ccc(Cl)cc1` [Chlorpropamide]: the normalised cell viability is, setting by setting: (treatment time: 3 days) 0.99 ± 0.023; (treatment time: 6 days) 1.08 ± 0.064.

For the compound `CC(=O)O[C@]1(C(C)=O)CC[C@H]2[C@@H]3C=C(Cl)C4=CC(=O)CC[C@]4(C)[C@H]3CC[C@@]21C` [Chlormadinone acetate], the normalised cell viability is, setting by setting: (treatment time: 3 days) 1.03 ± 0.015; (treatment time: 6 days) 1.017 ± 0.0072.

Regarding `Cc1cc(O)c(C(=O)N[C@@H](C(=O)N[C@@H]2C(=O)N3C(C(=O)O)=C(CSc4nnnn4C)CS[C@H]23)c2ccc(O)cc2)cn1` [Cefpiramide], the normalised cell viability reads like this: (treatment time: 3 days) 1.01 ± 0.08; (treatment time: 6 days) 1.04 ± 0.067.

On to `CN(CCCN1c2ccccc2CCc2ccccc21)CC(=O)c1ccc(Cl)cc1` [Lofepramine], for which the normalised cell viability runs as follows: (treatment time: 3 days) 0.9785 ± 0.0069; (treatment time: 6 days) 1 ± 0.094.

Turning to `CN(C)CCOC(c1ccccc1)c1ccccc1.Cn1c(=O)c2[nH]c(Cl)nc2n(C)c1=O` [Dimenhydrinate], the normalised cell viability was determined as 0.975 ± 0.025 (treatment time: 3 days) and 1.06 ± 0.11 (treatment time: 6 days).

Regarding `Clc1ccc2c(c1)CCc1cccnc1C2=C1CCNCC1` [Desloratadine], the normalised cell viability amounted to 0.601 ± 0.039 (treatment time: 3 days) and 0.605 ± 0.088 (treatment time: 6 days).

Take `O=C1NCC2(CCN(CCc3ccccc3)CC2)O1` [Fenspiride hydrochloride]: the normalised cell viability is, setting by setting: (treatment time: 3 days) 1.03 ± 0.051; (treatment time: 6 days) 1.06 ± 0.068.

Turning to `Cc1[nH]cnc1CN1CCc2c(c3ccccc3n2C)C1=O` [Alosetron hydrochloride], the normalised cell viability runs as follows: (treatment time: 3 days) 1.05 ± 0.038; (treatment time: 6 days) 1.02 ± 0.086.

Regarding `CCCOc1ccc2[nH]c(NC(=O)OC)nc2c1` [Oxibendazol], the normalised cell viability came out at 0.18 ± 0.0021 (treatment time: 3 days) and 0.194 ± 0.0035 (treatment time: 6 days).

For the compound `O=C(c1ccc(F)cc1)C1CCN(CCn2c(=O)[nH]c3ccccc3c2=O)CC1` [Ketanserin tartrate hydrate], the normalised cell viability is 0.94 ± 0.049 (treatment time: 3 days) and 0.964 ± 0.051 (treatment time: 6 days).

Consider `CCN(CC)C(=O)c1ccc(O)c(OC)c1` [Ethamivan], for which the normalised cell viability (treatment time: 3 days) was found to be 1.1 ± 0.014 and the normalised cell viability (treatment time: 6 days) turned out to be 1.05 ± 0.036.

Turning to `CN(C)CCC(c1ccc(Br)cc1)c1ccccn1` (configuration not stated) [Brompheniramine maleate], the normalised cell viability by setting is: (treatment time: 3 days) 0.922 ± 0.077; (treatment time: 6 days) 0.992 ± 0.056.

For the compound `c1ccc(-c2ccc(C(c3ccccc3)n3ccnc3)cc2)cc1` (configuration not stated) [Bifonazole], the normalised cell viability is 0.951 ± 0.042 (treatment time: 3 days) and 0.914 ± 0.066 (treatment time: 6 days).

For `Oc1c(Cl)cc(Cl)c2cccnc12` [Chloroxine], the normalised cell viability runs as follows: (treatment time: 3 days) 0.6 ± 0.025; (treatment time: 6 days) 0.6 ± 0.034.

For the compound `O=C1CC[C@@H](C(=O)N2CSC[C@H]2C(=O)O)N1` [Pidotimod], the normalised cell viability is 1.03 ± 0.021 (treatment time: 3 days) and 1.04 ± 0.068 (treatment time: 6 days).

Turning to `CC(=O)OC[C@H]1O[C@@H]([S-])[C@H](OC(C)=O)[C@@H](OC(C)=O)[C@@H]1OC(C)=O.CCP(CC)CC.[Au+]` [Auranofin], the normalised cell viability by setting is: (treatment time: 3 days) 0.126 ± 0.0085; (treatment time: 6 days) 0.128 ± 0.012.

For the compound `CCC1(c2ccccc2)C(=O)NCNC1=O` [Primidone], the normalised cell viability was found to be 0.947 ± 0.13 (treatment time: 3 days) and 0.951 ± 0.1 (treatment time: 6 days).

For the compound `Nc1ncnc2c1ncn2[C@@H]1O[C@H](CO)[C@@H](O)[C@@H]1O` [Vidarabine], the normalised cell viability is, setting by setting: (treatment time: 3 days) 0.776 ± 0.015; (treatment time: 6 days) 0.937 ± 0.13.
